The target of experiment [1] is fMLL 869–1124 (UniProt Q03164). The experiment in a line: co-IP; chromatin fraction of HEK293T cells expressing fMLL 869-1124 with each Xpress-tagged HBO1 complex component singly.
For experiment [2], the target named is fMLL 869–1124 (UniProt Q03164). As to the kind of experiment: co-IP; chromatin fraction of HEK293T cells expressing fMLL 869-1124 with all HBO1 complex components co-expressed (ING5 replaced by its mutants where told).
Experiment [3] addresses fGAL4-EAF1 (human) (UniProt Q96JC9). The experiment in a line: co-IP; chromatin fraction of HEK293TL cells transiently expressing FLAG-tagged GAL4 fusion proteins with or without xAF4 and HA-tagged constructs; endogenous proteins by specific antibodies, exogenous by FLAG, HA or Xpress.
The target is the same in experiment [4]. The experiment in a line: ChIP-qPCR recruitment to a GAL4-responsive promoter; HEK293TL cells with a GAL4-responsive reporter, FLAG-tagged GAL4 fusion proteins as tether; qPCR probe near the UAS.
The target is the same in experiment [5]. The experiment in a line: co-IP; chromatin fraction of HEK293TL cells transiently expressing FLAG-tagged GAL4 fusion proteins with or without xAF4 and HA-tagged constructs; endogenous proteins by specific antibodies, exogenous by FLAG, HA or Xpress. This is another data set of the same source.
Another experiment deals with fGAL4-MLL 869/1124 (UniProt Q03164). The experiment in a line: co-IP; fanChIP: MNase-treated chromatin fraction of HEK293T cells transiently expressing FLAG-tagged MLL or GAL4 constructs (with xAF4/xAF5Q31 where told); anti-FLAG beads, western blot. A general note: A western blot detects proteins with antibodies after separation by electrophoresis.
The target in another experiment is fMLL ΔFP (UniProt Q03164). The experiment is described as above.

Protein sequences, listed by entry. Tags and fused reporters are not part of them. Lines headed by an entry give the natural chain unless they say otherwise; changes in a name come on top. Residues count along the entry.
fMLL ΔFP (Q03164, residues 1-1395): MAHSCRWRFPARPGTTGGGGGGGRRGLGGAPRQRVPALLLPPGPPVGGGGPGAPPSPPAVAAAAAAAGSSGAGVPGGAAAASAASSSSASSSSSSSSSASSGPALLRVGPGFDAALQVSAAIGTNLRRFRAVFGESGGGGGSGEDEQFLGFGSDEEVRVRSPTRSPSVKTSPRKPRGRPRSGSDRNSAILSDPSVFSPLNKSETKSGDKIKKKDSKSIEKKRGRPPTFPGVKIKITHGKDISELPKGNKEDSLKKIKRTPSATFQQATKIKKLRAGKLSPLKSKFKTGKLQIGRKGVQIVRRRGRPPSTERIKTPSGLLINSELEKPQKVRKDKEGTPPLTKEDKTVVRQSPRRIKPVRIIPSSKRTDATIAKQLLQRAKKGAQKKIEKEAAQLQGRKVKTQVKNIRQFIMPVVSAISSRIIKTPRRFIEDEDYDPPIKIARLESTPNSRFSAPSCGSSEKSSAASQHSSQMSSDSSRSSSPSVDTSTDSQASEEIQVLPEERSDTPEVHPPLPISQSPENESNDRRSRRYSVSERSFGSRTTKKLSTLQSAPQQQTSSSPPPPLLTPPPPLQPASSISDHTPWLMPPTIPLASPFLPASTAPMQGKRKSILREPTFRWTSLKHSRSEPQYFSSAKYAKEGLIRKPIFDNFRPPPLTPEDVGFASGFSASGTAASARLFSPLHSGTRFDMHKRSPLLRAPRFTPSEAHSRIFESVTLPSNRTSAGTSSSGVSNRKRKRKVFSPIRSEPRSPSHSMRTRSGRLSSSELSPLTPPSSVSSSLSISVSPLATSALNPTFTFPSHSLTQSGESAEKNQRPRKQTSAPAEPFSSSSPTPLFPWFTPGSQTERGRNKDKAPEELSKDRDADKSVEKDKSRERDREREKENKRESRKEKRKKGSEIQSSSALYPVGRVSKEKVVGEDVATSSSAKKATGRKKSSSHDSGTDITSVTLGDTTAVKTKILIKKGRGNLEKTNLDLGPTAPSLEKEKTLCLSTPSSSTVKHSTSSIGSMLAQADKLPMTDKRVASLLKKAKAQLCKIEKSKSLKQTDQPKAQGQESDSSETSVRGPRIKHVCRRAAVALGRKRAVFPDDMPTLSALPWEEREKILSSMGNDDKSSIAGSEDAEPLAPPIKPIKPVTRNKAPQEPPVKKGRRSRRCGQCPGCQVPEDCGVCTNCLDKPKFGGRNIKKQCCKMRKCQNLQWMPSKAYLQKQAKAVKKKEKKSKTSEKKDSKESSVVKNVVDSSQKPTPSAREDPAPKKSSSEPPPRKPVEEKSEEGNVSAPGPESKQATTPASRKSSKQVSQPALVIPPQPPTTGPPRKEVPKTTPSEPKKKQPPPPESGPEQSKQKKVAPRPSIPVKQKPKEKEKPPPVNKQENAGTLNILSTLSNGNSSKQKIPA
fGAL4-MLL 869/1124 (Q03164, residues 869-1124): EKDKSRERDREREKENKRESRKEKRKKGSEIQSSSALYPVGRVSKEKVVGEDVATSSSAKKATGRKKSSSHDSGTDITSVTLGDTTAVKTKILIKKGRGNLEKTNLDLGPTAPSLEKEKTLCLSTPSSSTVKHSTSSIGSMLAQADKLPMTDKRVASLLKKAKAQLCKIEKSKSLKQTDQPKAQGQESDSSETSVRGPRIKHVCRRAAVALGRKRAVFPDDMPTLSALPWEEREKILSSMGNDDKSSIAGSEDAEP
UniProt Q8WYH8: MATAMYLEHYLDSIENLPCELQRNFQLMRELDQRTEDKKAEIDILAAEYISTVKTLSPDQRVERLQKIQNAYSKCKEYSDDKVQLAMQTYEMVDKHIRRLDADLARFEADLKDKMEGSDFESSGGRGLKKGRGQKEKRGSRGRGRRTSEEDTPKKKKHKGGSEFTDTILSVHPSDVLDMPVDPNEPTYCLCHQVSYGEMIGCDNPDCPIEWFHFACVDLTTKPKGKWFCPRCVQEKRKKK

Consider six molecules from article PMC8387021.

These are yes or no findings as the source states them, for the method shown. For some assays here: Binding seen in cells or lysates may run through a third protein. Some entries that bind do so weakly or less than the wild type. For some assays here: Tags and fused reporters may be left off the sequences shown.

For “Xpress-tagged ING5 (from UniProt Q8WYH8 1-240)”, the binding result is reported as “binds weakly” with fMLL 869–1124 [1] and “binds” with fMLL 869–1124 [2].
On to “HA-tagged EAF1 (from UniProt Q96JC9 1-268)”, for which the binding result with fGAL4-EAF1 (human) [3] is “binds”.

B1: Xpress-tagged PHF16 (protein, UniProt Q92613 1-823)
chain: MKRHRPVSSSDSSDESPSTSFTSGSMYRIKSKIPNEHKKPAEVFRKDLISAMKLPDSHHINPDSYYLFADTWKEEWEKGVQVPASPDTVPQPSLRIIAEKVKDVLFIRPRKYIHCSSPDTTEPGYINIMELAASVCRYDLDDMDIFWLQELNEDLAEMGCGPVDENLMEKTVEVLERHCHENMNHAIETEEGLGIEYDEDVICDVCRSPDSEEGNDMVFCDKCNVCVHQACYGILKVPEGSWLCRSCVLGIYPQCVLCPKKGGALKTTKTGTKWAHVSCALWIPEVSIACPERMEPITKISHIPPSRWALVCNLCKLKTGACIQCSIKSCITAFHVTCAFEHGLEMKTILDEGDEVKFKSYCLKHSQNRQKLGEAEYPHHRAKEQSQAKSEKTSLRAQKLRELEEEFYSLVRVEDVAAELGMPTLAVDFIYNYWKLKRKSNFNKPLFPPKEDEENGLVQPKEESIHTRMRMFMHLRQDLERVRNLCYMISRREKLKLSHNKIQEQIFGLQVQLLNQEIDAGLPLTNALENSLFYPPPRITLKLKMPKSTPEDHRNSSTETDQQPHSPDSSSSVHSIRNMQVPQESLEMRTKSYPRYPLESKNNRLLASLSHSRSEAKESSPAWRTPSSECYHGQSLGKPLVLQAALHGQSSIGNGKSQPNSKFAKSNGLEGSWSGNVTQKDSSSEMFCDQEPVFSPHLVSQGSFRKSTVEHFSRSFKETTNRWVKNTEDLQCYVKPTKNMSPKEQFWGRQVLRRSAGRAPYQENDGYCPDLELSDSEAESDGNKEKVRVRKDSSDRENPPHDSRRDCHGKSKTHPLSHSSMQR
For B1, the binding result with fMLL 869–1124 [1] is “binds weakly”; with fMLL 869–1124 [2], “binds”.

B2: ENL (protein, UniProt Q03111 1-559)
chain: MDNQCTVQVRLELGHRAQLRKKPTTEGFTHDWMVFVRGPEQCDIQHFVEKVVFWLHDSFPKPRRVCKEPPYKVEESGYAGFIMPIEVHFKNKEEPRKVCFTYDLFLNLEGNPPVNHLRCEKLTFNNPTTEFRYKLLRAGGVMVMPEGADTVSRPSPDYPMLPTIPLSAFSDPKKTKPSHGSKDANKESSKTSKPHKVTKEHRERPRKDSESKSSSKELEREQAKSSKDTSRKLGEGRLPKEEKAPPPKAAFKEPKMALKETKLESTSPKGGPPPPPPPPPRASSKRPATADSPKPSAKKQKKSSSKGSRSAPGTSPRTSSSSSFSDKKPAKDKSSTRGEKVKAESEPREAKKALEVEESNSEDEASFKSESAQSSPSNSSSSSDSSSDSDFEPSQNHSQGPLRSMVEDLQSEESDEDDSSSGEEAAGKTNPGRDSRLSFSDSESDNSADSSLPSREPPPPQKPPPPNSKVSGRRSPESCSKPEKILKKGTYDKAYTDELVELHRRLMALRERNVLQQIVNLIEETGHFNVTNTTFDFDLFSLDETTVRKLQSCLEAVAT
As for B2, the binding entry in the experiment with fGAL4-EAF1 (human) [4] and with fGAL4-EAF1 (human) [5] was “no binding” throughout.

B3: Xpress-tagged AF4 (protein, UniProt P51825 1-1210)
chain: MAAQSSLYNDDRNLLRIREKERRNQEAHQEKEAFPEKIPLFGEPYKTAKGDELSSRIQNMLGNYEEVKEFLSTKSHTHRLDASENRLGKPKYPLIPDKGSSIPSSSFHTSVHHQSIHTPASGPLSVGNISHNPKMAQPRTEPMPSLHAKSCGPPDSQHLTQDRLGQEGFGSSHHKKGDRRADGDHCASVTDSAPERELSPLISLPSPVPPLSPIHSNQQTLPRTQGSSKVHGSSNNSKGYCPAKSPKDLAVKVHDKETPQDSLVAPAQPPSQTFPPPSLPSKSVAMQQKPTAYVRPMDGQDQAPSESPELKPLPEDYRQQTFEKTDLKVPAKAKLTKLKMPSQSVEQTYSNEVHCVEEILKEMTHSWPPPLTAIHTPSTAEPSKFPFPTKDSQHVSSVTQNQKQYDTSSKTHSNSQQGTSSMLEDDLQLSDSEDSDSEQTPEKPPSSSAPPSAPQSLPEPVASAHSSSAESESTSDSDSSSDSESESSSSDSEENEPLETPAPEPEPPTTNKWQLDNWLTKVSQPAAPPEGPRSTEPPRRHPESKGSSDSATSQEHSESKDPPPKSSSKAPRAPPEAPHPGKRSCQKSPAQQEPPQRQTVGTKQPKKPVKASARAGSRTSLQGEREPGLLPYGSRDQTSKDKPKVKTKGRPRAAASNEPKPAVPPSSEKKKHKSSLPAPSKALSGPEPAKDNVEDRTPEHFALVPLTESQGPPHSGSGSRTSGCRQAVVVQEDSRKDRLPLPLRDTKLLSPLRDTPPPQSLMVKITLDLLSRIPQPPGKGSRQRKAEDKQPPAGKKHSSEKRSSDSSSKLAKKRKGEAERDCDNKKIRLEKEIKSQSSSSSSSHKESSKTKPSRPSSQSSKKEMLPPPPVSSSSQKPAKPALKRSRREADTCGQDPPKSASSTKSNHKDSSIPKQRRVEGKGSRSSSEHKGSSGDTANPFPVPSLPNGNSKPGKPQVKFDKQQADLHMREAKKMKQKAELMTDRVGKAFKYLEAVLSFIECGIATESESQSSKSAYSVYSETVDLIKFIMSLKSFSDATAPTQEKIFAVLCMRCQSILNMAMFRCKKDIAIKYSRTLNKHFESSSKVAQAPSPCIASTGTPSPLSPMPSPASSVGSQSSAGSVGSSGVAATISTPVTIQNMTSSYVTITSHVLTAFDLWEQAEALTRKNKEFFARLSTNVCTLALNSSLVDLVHYTRQGFQQLQELTKTP
On to B3, for which the binding entry with fGAL4-MLL 869/1124 was “no binding”; with fMLL ΔFP, “binds”.

B4: AF4 (protein, UniProt P51825 1-1210)
chain: B3 chain
For B4, the binding entry with fGAL4-EAF1 (human) [4] and with fGAL4-EAF1 (human) [5] was “no binding” in each case.
